# Results published in PubChem BioAssay AID651820 (National Center for Advancing Translational Sciences (NCATS), 2012).
# Screen size: about 340,000 compounds; about 12,000 (3.5%) were called active. Inconclusive means that the source gave no clear call. Such entries were picked first, then a sample of the others. Calls come from the whole dose curve; as a rule, active = well fitted inhibition curve with a large enough effect; inconclusive = small, poorly fitted or top-dose-only effect, or another doubt; inactive = no such curve, though single readings can be large or run the other way. No potency is given beside an inconclusive call; the fits are too rough.
# Experiment: qHTS Assay for Inhibitors of Hepatitis C Virus (HCV)
# Conditions: Huh7.5.1 HCVcc-Cre (HCVcc is cell-culture hepatitis C virus) infection, luciferase reporter, 44 h; activity change, negative = inhibition: at 41.8 µM (top of the series)
# In short: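 Infectious HCV cell culture screen: compound-treated cells (1,000/well, pre-plated 4 h) are infected with HCVcc-Cre at roughly 0.5 moi and grown 44 h. Infection is quantified by luciferase signal after 15 min substrate incubation at room temperature.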
# % is set by controls: 0 for no effect and ±100 for the full control effect; potency is the fitted concentration of half-maximal effect; tags give direction and shape of the fitted curve.
Compound,Potency,"activity change, negative = inhibition"
Cc1ccc(S(=O)(=O)N/N=C\c2ccc([N+](=O)[O-])o2)cc1,active: 12.6 µM,–
Cc1ccc(-c2nc3cc(NC(=O)C(C)C)ccc3o2)cc1C,"inconclusive [inhibitor, full curve]",–
COC(=O)c1c(NC2=NS(=O)(=O)c3ccccc32)sc2c1CCC(C(C)(C)C)C2 (configuration not stated),–,inactive: -17.8%
CC(=O)c1cc2c(cc1NC(=O)Cc1c(C)noc1C)OCO2,"inconclusive [inhibitor, single point]",–
O=[N+]([O-])C1C(c2ccccc2)=NOC1c1ccccc1O (configuration not stated),–,inactive: 5.84%
CSc1cccc(NC(=S)N(CCCN2CCCC2)Cc2cccn2Cc2ccc(Cl)cc2)c1,"inconclusive [inhibitor, single point]",–
O=C(COc1cccc(Br)c1)Nc1ccc(Cl)c(S(=O)(=O)N2CCOCC2)c1,"inconclusive [inhibitor, single point]",–
CCN(CC)S(=O)(=O)c1ccc(/C=C/C(=O)Nc2ccc(Br)cc2F)cc1,active: 2 µM,–
CCC(=O)c1ccc(OCc2ccc(C(=O)OC)cc2)c(OC)c1,–,inactive: 1.25%
O=C(CN(C(=O)CCC(=O)Nc1nccs1)c1ccc2c(c1)OCO2)NCC1CCCO1 (configuration not stated),inactive,–
O=C1CCCN1C(=O)CSc1nnnn1-c1ccccc1,–,inactive: 6.27%
CCc1ccc(OCC(=O)Nc2cccc3c2CCCC3)cc1,"inconclusive [inhibitor, single point]",–
COc1cccc(C(=O)Nc2ccc(Oc3cccc(C(F)(F)F)c3)nc2)c1,active: 7.08 µM,–
CCc1c(C(=O)N/N=C/c2cn[nH]c2-c2ccc(F)cc2)csc1C,–,inactive: 20.1%
Cc1ncc(CN2CCCC(C(=O)Nc3ccc(-c4cscn4)cc3)C2)cn1 (configuration not stated),–,inactive: 5.72%
CN(c1ccccc1)S(=O)(=O)c1cccc(NC(=O)C2=NN(c3ccccc3)C(=O)CC2)c1,active: 15.8 µM,–
N#Cc1ccc(/C=C/C(=O)c2ccc3c(c2)OCO3)cc1,"inconclusive [inhibitor, partial curve, poor fit]",–
CCN(CC)CCCN(C(=O)c1ccc(Br)cc1)c1nc(-c2ccc(OC)cc2)cs1,"inconclusive [inhibitor, partial curve]",–
O=C(O)c1ccc([N+](=O)[O-])cc1Sc1ccsc1,–,inactive: 2.61%
O=C(Cn1cnc2ccccc21)Nc1ccc(F)c(F)c1,"inconclusive [inhibitor, single point]",–
Cc1nc(C(=O)N2CCc3c([nH]c4ccccc34)C2c2cc(F)ccc2F)cs1 (configuration not stated),–,inactive: 14.9%
O=C(/C=C/c1ccc[nH]1)c1ccc(F)cc1,–,inactive: -7.14%
